# Measurements as given in the supplement of paper PMC12217912.
# The other results are listed elsewhere or left out. Sequences were assembled here from the parent chain. Inactive controls read about 0.05.
# B1: TEV protease; numbered along this chain (parent)
# chain: MGESLFKGPRDYNPISSSICHLTNESDGHTTSLYGIGFGPFIITNKHLFRRNNGTLVVQSLHGVFKVKDTTTLQQHLVDGRDMIIIRMPKDFPPFPQKLKFREPQREERICLVTTNFQTKSMSSMVSDTSCTFPSGDGIFWKHWIQTKDGQCGSPLVSTRDGFIVGIHSASNFTNTNNYFTSVPKNFMELLTNQEAQQWVSGWRLNADSVLWGGHKVFMVKPEEPFQPVKEATQL
# Variants of: B1
# Assay: raw area under fraction-flipped curve 0-4 h after induction (AUC4h, not background-subtracted), DNA-recorder readout of cleavage of the substrate (dimensionless); higher = more cleavage of the substrate by the protease variant
# Details: temperature: 34 °C; time window: 0-4 h after rhamnose induction
# Experimental: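 In vivo DNA recorder in E. coli TOP10(DE3) ΔrhaA at 34 °C. Each TEVp single-site mutant (parent TEVp 0) is paired with a single-site variant of the 7-mer TEVs (canonical ENLYFQ|S). The substrate sits between flexible linkers in a Bxb1-sfGFP-TEVs-SsrA fusion, so cleavage stabilises Bxb1 and speeds flipping of a recombination array, read by NGS. The value is the raw area under the fraction-flipped curve over 0-4 h after rhamnose induction (AUC4h), with ≥20 reads per time point. It is not background-subtracted; inactive controls average about 0.047.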
# 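Further: Bxb1 expression induced with 0.2% (w/v) L-rhamnose at OD600 near 0.5, cultures sampled hourly, flipped fraction per protease–substrate barcode pair counted by paired-end Illumina sequencing.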
Variant,area with substrate ENLYCQS,area with substrate ENLYDQS,area with substrate ENLYEQS,area with substrate ENLYGQS,area with substrate ENLYHQS,area with substrate ENLYKQS,area with substrate ENLYMQS,area with substrate ENLYNQS,area with substrate ENLYQQS,area with substrate ENLYWQS,area with substrate ENLYYQS,area with substrate ENLYIQS,area with substrate ENLYLQS,area with substrate ENLYPQS,area with substrate ENLYRQS,area with substrate ENLYTQS,area with substrate ENLYVQS,area with substrate ENLYSQS
MGESLFKGPRDYNPISSSICHLTNESDGHTTSLYGIGFGPFIITNKHLFRRNNGTLVVQSLHGVFKVKDTTTLQQHLVDGRDMIIIRMPKDFPPFPQKLKFREPQREERICLVTTNFQTKSMSSMVSDTSCTFPSGDGIFWKHWIQTKDGQCGSPLVSTRDGFIVGIHSASNFTNTNNYFTSVPKNFMELLTNQEAQQWVSGWRLNADSVLWGGHKVFMNKPEEPFQPVKEATQL [V220N],0.0858,0.0589,0.06,0.0652,0.0659,0.0704,0.0818,0.0752,0.0633,0.119,0.0522,,,,,,,
MGESLFKGPRDYNPISSSICHLTNESDGHTTSLYGIGFGPFIITNKHLFRRNNGTLVVQSLHGVFKVKDTTTLQQHLVDGRDMIIIRMPKDFPPFPQKLKFREPQREERICLVTTNFQTKSMSSMVSDTSCTFPSGDGIFWKHWIITKDGQCGSPLVSTRDGFIVGIHSASNFTNTNNYFTSVPKNFMELLTNQEAQQWVSGWRLNADSVLWGGHKVFMVKPEEPFQPVKEATQL [Q146I],0.0897,0.0801,0.0725,0.0728,0.0747,0.0291,0.0851,,,,,0.0786,0.0844,0.0772,0.0706,0.0904,0.138,
MGESLFKGPRDYNPISSSICHLTNESDGHTTSLYGIGFGPFIITNKHLFRRNNGTLVVQSLHGVFKVKDTTTLQQHLVDGRDMIIIRMPKDFPPFPQKLFFREPQREERICLVTTNFQTKSMSSMVSDTSCTFPSGDGIFWKHWIQTKDGQCGSPLVSTRDGFIVGIHSASNFTNTNNYFTSVPKNFMELLTNQEAQQWVSGWRLNADSVLWGGHKVFMVKPEEPFQPVKEATQL [K100F],0.0961,,0.0417,,0.0611,0.0987,,0.0581,,0.0812,0.0626,0.113,,,,0.0855,0.106,
MGESLFKGPRDYNPISSSICHLTNESDGHTTSLYGIGFGPFIITNKHLFRRNNGTLVVQSLHGVFKVKDTTTLQQHLVDGRDMIIIRMPKDFPPFPQKLKFREPQREERICLVTTNFQTKSMSAMVSDTSCTFPSGDGIFWKHWIQTKDGQCGSPLVSTRDGFIVGIHSASNFTNTNNYFTSVPKNFMELLTNQEAQQWVSGWRLNADSVLWGGHKVFMVKPEEPFQPVKEATQL [S124A],0.0895,,0.0645,0.0443,,0.0593,0.0838,0.0571,0.0804,,0.0851,0.114,0.0812,0.0579,0.0429,,,
MGESLFKGPRGYNPISSSICHLTNESDGHTTSLYGIGFGPFIITNKHLFRRNNGTLVVQSLHGVFKVKDTTTLQQHLVDGRDMIIIRMPKDFPPFPQKLKFREPQREERICLVTTNFQTKSMSSMVSDTSCTFPSGDGIFWKHWIQTKDGQCGSPLVSTRDGFIVGIHSASNFTNTNNYFTSVPKNFMELLTNQEAQQWVSGWRLNADSVLWGGHKVFMVKPEEPFQPVKEATQL [D11G],0.0889,0.0663,0.0555,0.0719,0.059,0.0662,0.0845,0.068,0.0668,0.0797,,,0.0781,,0.0586,0.0629,0.126,0.074
MGESLFKGPRDYNPISSSICHLTNESDGHTTSLYGIGFGPFIITNKHLFRRNNGTLVVQSLHGVFKVKDTTTLQQHLVDGRDMIIIRMPKDFPPFPQKLKFREPQREERICLVTTNFQTKSMSSMVSDTSCTFPSGDGIFWKHWIQTKDGQCGSPLVSTPDGFIVGIHSASNFTNTNNYFTSVPKNFMELLTNQEAQQWVSGWRLNADSVLWGGHKVFMVKPEEPFQPVKEATQL [R160P],0.062,0.0712,0.0522,0.0609,0.0861,0.0318,0.0731,0.056,0.0602,,0.0639,0.0898,,0.0632,0.0685,,0.074,0.084
MGESLFKGPRDYNPISSSICHLTNESDGHTTSLYGIGFGPFIITNKHLFRRNNGTLVVQSLHGVFKVKDTTTLQQHLVDGRDMIIIRMPKDFPPFPQKLKFREPQREERSCLVTTNFQTKSMSSMVSDTSCTFPSGDGIFWKHWIQTKDGQCGSPLVSTRDGFIVGIHSASNFTNTNNYFTSVPKNFMELLTNQEAQQWVSGWRLNADSVLWGGHKVFMVKPEEPFQPVKEATQL [I110S],0.0603,0.0559,0.0538,0.0613,0.0503,0.0352,0.0369,0.053,0.0646,,0.0473,0.0694,,0.0663,0.061,0.0674,0.0598,0.0496
MGESLFKGPRDYNPISSSICHLTNESDGHTTSLYGIGFGPFIITNKHLFRRNNGTLVVQSLHGVFKVKDTTTLQQHLVDGRDMIIIRMPKDYPPFPQKLKFREPQREERICLVTTNFQTKSMSSMVSDTSCTFPSGDGIFWKHWIQTKDGQCGSPLVSTRDGFIVGIHSASNFTNTNNYFTSVPKNFMELLTNQEAQQWVSGWRLNADSVLWGGHKVFMVKPEEPFQPVKEATQL [F92Y],0.0811,,0.0656,0.0702,0.0535,,0.0615,0.0823,0.0653,0.081,,,0.0804,0.0587,,,0.136,
MGESLFKGPRDYNPISSSICHLTNESDGHTTSLYGIGFGPFIITNKHLFRRNNGTLVVQSLHGVFKVKDTTTLQQHLVDGRDMIIIRMPKDFPPFPQKLKFREPQREERICLVTTNFQTKSMSSMVSDTSCTFPSGDGIFWKHWIQTKDGQCGSPLVSTRDGFIVGIHSASNFTNTNNYFTSVPKNFMELLTNQEAQQWVSGWRLNADSVLWGGHKVFMVKPEEPFQPMKEATQL [V229M],0.081,,0.0654,0.0416,0.0578,0.0709,,0.0747,0.0674,,0.0675,,,0.0714,0.0531,0.0878,0.117,0.0742
